According to paper PMC6286407:
No constants are given. Whether binding was seen depends on the method and setting. In cells and extracts the contact can be indirect. Some entries that bind do so weakly or less than the wild type. Where a sequence is shown, tags or fusion partners need not be part of it. Each block holds one binder with its values, some of them ahead of it.

Key:
GST-CC2D1B (human) = biological target: T1, GST-CC2D1B (human) (UniProt Q5T0F9); experiment: pull-down; GST pull-down from lysates of 293T cells co-transfected with a pCAG-GST construct and a pCR3.1 HA-tagged construct; glutathione-sepharose beads 3 h at 4°C; 50 mM Tris pH 7.4, 150 mM NaCl, 5 mM EDTA, 5% glycerol, 1% Triton X-100 (wash 0.1%); western blot
T1 sequence: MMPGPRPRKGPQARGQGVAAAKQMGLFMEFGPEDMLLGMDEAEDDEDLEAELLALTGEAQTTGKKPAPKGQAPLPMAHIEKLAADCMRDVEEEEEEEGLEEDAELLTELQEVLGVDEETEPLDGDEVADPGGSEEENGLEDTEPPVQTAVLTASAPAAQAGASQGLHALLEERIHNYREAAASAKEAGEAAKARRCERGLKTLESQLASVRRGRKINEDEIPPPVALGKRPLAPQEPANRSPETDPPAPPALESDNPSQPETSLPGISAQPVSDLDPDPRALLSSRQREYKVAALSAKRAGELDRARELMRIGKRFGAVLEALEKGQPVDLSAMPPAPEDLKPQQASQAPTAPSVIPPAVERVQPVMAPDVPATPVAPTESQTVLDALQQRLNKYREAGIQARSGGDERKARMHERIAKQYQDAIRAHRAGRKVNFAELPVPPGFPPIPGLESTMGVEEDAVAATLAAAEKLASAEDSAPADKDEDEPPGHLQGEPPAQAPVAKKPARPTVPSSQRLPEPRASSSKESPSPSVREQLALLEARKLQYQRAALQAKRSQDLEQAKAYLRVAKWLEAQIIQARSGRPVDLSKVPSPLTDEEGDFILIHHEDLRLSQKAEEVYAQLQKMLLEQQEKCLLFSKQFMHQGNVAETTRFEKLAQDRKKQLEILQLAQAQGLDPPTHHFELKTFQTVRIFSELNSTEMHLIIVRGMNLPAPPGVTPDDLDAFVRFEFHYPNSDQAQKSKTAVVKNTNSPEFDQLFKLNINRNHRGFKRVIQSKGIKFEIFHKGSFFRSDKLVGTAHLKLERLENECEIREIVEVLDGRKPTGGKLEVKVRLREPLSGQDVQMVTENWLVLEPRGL

GST-CHMP4B [1] = biological target: T2, GST-CHMP4B (UniProt Q9H444); experiment: pull-down; GST pull-down from cells co-expressing three proteins: GST-CHMP4B, HA-CHMP7 and YFP-CC2D1B
T2 sequence: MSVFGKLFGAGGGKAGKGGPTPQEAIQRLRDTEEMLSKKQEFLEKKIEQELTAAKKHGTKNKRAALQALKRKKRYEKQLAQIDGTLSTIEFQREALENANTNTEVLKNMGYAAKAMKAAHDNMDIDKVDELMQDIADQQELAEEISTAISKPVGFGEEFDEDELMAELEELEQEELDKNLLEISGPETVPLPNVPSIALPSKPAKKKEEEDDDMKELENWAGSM

[2] = biological target: T3, GST-CC2D1B residues 528–594 (human) (UniProt Q5T0F9); experiment: pull-down; GST pull-down from lysates of 293T cells co-transfected with a pCAG-GST construct and a pCR3.1 HA-tagged construct; glutathione-sepharose beads 3 h at 4°C; 50 mM Tris pH 7.4, 150 mM NaCl, 5 mM EDTA, 5% glycerol, 1% Triton X-100 (wash 0.1%); western blot
T3 sequence: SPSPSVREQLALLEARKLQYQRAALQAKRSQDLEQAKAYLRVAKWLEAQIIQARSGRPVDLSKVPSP

GST-CHMP4B [3] = biological target: T2, GST-CHMP4B; experiment: as above
GST-CHMP7 = biological target: T4, GST-CHMP7 (UniProt Q8WUX9); experiment: as above
T4 sequence: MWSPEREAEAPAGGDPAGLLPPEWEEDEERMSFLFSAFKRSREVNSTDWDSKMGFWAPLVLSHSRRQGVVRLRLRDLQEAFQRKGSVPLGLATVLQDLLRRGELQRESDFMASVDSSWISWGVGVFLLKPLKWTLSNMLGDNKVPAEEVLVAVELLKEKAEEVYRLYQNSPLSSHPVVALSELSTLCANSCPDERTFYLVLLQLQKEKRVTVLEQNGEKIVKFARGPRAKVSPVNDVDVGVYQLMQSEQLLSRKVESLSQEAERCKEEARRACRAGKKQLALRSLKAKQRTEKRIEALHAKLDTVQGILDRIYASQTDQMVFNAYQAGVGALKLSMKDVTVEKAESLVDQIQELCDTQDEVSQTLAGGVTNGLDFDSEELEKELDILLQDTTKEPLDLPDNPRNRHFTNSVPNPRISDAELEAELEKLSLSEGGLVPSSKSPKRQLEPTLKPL

- binding (GST-CC2D1B (human)): no binding
B1: HA-CHMP3 (protein, UniProt Q9Y3E7 1-222)
chain: MGLFGKTQEKPPKELVNEWSLKIRKEMRVVDRQIRDIQREEEKVKRSVKDAAKKGQKDVCIVLAKEMIRSRKAVSKLYASKAHMNSVLMGMKNQLAVLRVAGSLQKSTEVMKAMQSLVKIPEIQATMRELSKEMMKAGIIEEMLEDTFESMDDQEEMEEEAEMEIDRILFEITAGALGKAPSKVTDALPEPEPPGAMAASEDEEEEEEALEAMQSRLATLRS

- binding (GST-CC2D1B (human)): binds
B2: HA-CHMP7 Ct (residues 238–453) (domain or fragment, UniProt Q8WUX9 238-453)
chain: DVGVYQLMQSEQLLSRKVESLSQEAERCKEEARRACRAGKKQLALRSLKAKQRTEKRIEALHAKLDTVQGILDRIYASQTDQMVFNAYQAGVGALKLSMKDVTVEKAESLVDQIQELCDTQDEVSQTLAGGVTNGLDFDSEELEKELDILLQDTTKEPLDLPDNPRNRHFTNSVPNPRISDAELEAELEKLSLSEGGLVPSSKSPKRQLEPTLKPL

- binding (GST-CC2D1B (human)): binds
B3: HA-CHMP4B (protein, UniProt Q9H444 1-224)
chain: MSVFGKLFGAGGGKAGKGGPTPQEAIQRLRDTEEMLSKKQEFLEKKIEQELTAAKKHGTKNKRAALQALKRKKRYEKQLAQIDGTLSTIEFQREALENANTNTEVLKNMGYAAKAMKAAHDNMDIDKVDELMQDIADQQELAEEISTAISKPVGFGEEFDEDELMAELEELEQEELDKNLLEISGPETVPLPNVPSIALPSKPAKKKEEEDDDMKELENWAGSM

- binding (GST-CHMP4B [1]): binds
- binding [2]: binds
- binding (GST-CC2D1B (human)): binds
B4: HA-CHMP7 full-length (protein, UniProt Q8WUX9 1-453)
chain: MWSPEREAEAPAGGDPAGLLPPEWEEDEERMSFLFSAFKRSREVNSTDWDSKMGFWAPLVLSHSRRQGVVRLRLRDLQEAFQRKGSVPLGLATVLQDLLRRGELQRESDFMASVDSSWISWGVGVFLLKPLKWTLSNMLGDNKVPAEEVLVAVELLKEKAEEVYRLYQNSPLSSHPVVALSELSTLCANSCPDERTFYLVLLQLQKEKRVTVLEQNGEKIVKFARGPRAKVSPVNDVDVGVYQLMQSEQLLSRKVESLSQEAERCKEEARRACRAGKKQLALRSLKAKQRTEKRIEALHAKLDTVQGILDRIYASQTDQMVFNAYQAGVGALKLSMKDVTVEKAESLVDQIQELCDTQDEVSQTLAGGVTNGLDFDSEELEKELDILLQDTTKEPLDLPDNPRNRHFTNSVPNPRISDAELEAELEKLSLSEGGLVPSSKSPKRQLEPTLKPL

- binding (GST-CHMP4B [3]): binds
- binding (GST-CHMP7): no binding
B5: HA-CC2D1B residues 162–493 (domain or fragment, UniProt Q5T0F9 162-493)
chain: ASQGLHALLEERIHNYREAAASAKEAGEAAKARRCERGLKTLESQLASVRRGRKINEDEIPPPVALGKRPLAPQEPANRSPETDPPAPPALESDNPSQPETSLPGISAQPVSDLDPDPRALLSSRQREYKVAALSAKRAGELDRARELMRIGKRFGAVLEALEKGQPVDLSAMPPAPEDLKPQQASQAPTAPSVIPPAVERVQPVMAPDVPATPVAPTESQTVLDALQQRLNKYREAGIQARSGGDERKARMHERIAKQYQDAIRAHRAGRKVNFAELPVPPGFPPIPGLESTMGVEEDAVAATLAAAEKLASAEDSAPADKDEDEPPGHLQ

- binding (GST-CC2D1B (human)): no binding
B6: HA-CHMP7 Nt (residues 1–238) (domain or fragment, UniProt Q8WUX9 1-238)
chain: MWSPEREAEAPAGGDPAGLLPPEWEEDEERMSFLFSAFKRSREVNSTDWDSKMGFWAPLVLSHSRRQGVVRLRLRDLQEAFQRKGSVPLGLATVLQDLLRRGELQRESDFMASVDSSWISWGVGVFLLKPLKWTLSNMLGDNKVPAEEVLVAVELLKEKAEEVYRLYQNSPLSSHPVVALSELSTLCANSCPDERTFYLVLLQLQKEKRVTVLEQNGEKIVKFARGPRAKVSPVNDVD

- binding (GST-CHMP4B [1]): binds
B7: YFP-CC2D1B (protein, UniProt Q5T0F9 1-858)
chain: MMPGPRPRKGPQARGQGVAAAKQMGLFMEFGPEDMLLGMDEAEDDEDLEAELLALTGEAQTTGKKPAPKGQAPLPMAHIEKLAADCMRDVEEEEEEEGLEEDAELLTELQEVLGVDEETEPLDGDEVADPGGSEEENGLEDTEPPVQTAVLTASAPAAQAGASQGLHALLEERIHNYREAAASAKEAGEAAKARRCERGLKTLESQLASVRRGRKINEDEIPPPVALGKRPLAPQEPANRSPETDPPAPPALESDNPSQPETSLPGISAQPVSDLDPDPRALLSSRQREYKVAALSAKRAGELDRARELMRIGKRFGAVLEALEKGQPVDLSAMPPAPEDLKPQQASQAPTAPSVIPPAVERVQPVMAPDVPATPVAPTESQTVLDALQQRLNKYREAGIQARSGGDERKARMHERIAKQYQDAIRAHRAGRKVNFAELPVPPGFPPIPGLESTMGVEEDAVAATLAAAEKLASAEDSAPADKDEDEPPGHLQGEPPAQAPVAKKPARPTVPSSQRLPEPRASSSKESPSPSVREQLALLEARKLQYQRAALQAKRSQDLEQAKAYLRVAKWLEAQIIQARSGRPVDLSKVPSPLTDEEGDFILIHHEDLRLSQKAEEVYAQLQKMLLEQQEKCLLFSKQFMHQGNVAETTRFEKLAQDRKKQLEILQLAQAQGLDPPTHHFELKTFQTVRIFSELNSTEMHLIIVRGMNLPAPPGVTPDDLDAFVRFEFHYPNSDQAQKSKTAVVKNTNSPEFDQLFKLNINRNHRGFKRVIQSKGIKFEIFHKGSFFRSDKLVGTAHLKLERLENECEIREIVEVLDGRKPTGGKLEVKVRLREPLSGQDVQMVTENWLVLEPRGL

- binding (GST-CHMP4B [3]): binds
- binding (GST-CHMP7): binds
B8: HA-CC2D1B residues 162-594 (domain or fragment, UniProt Q5T0F9 162-594)
chain: ASQGLHALLEERIHNYREAAASAKEAGEAAKARRCERGLKTLESQLASVRRGRKINEDEIPPPVALGKRPLAPQEPANRSPETDPPAPPALESDNPSQPETSLPGISAQPVSDLDPDPRALLSSRQREYKVAALSAKRAGELDRARELMRIGKRFGAVLEALEKGQPVDLSAMPPAPEDLKPQQASQAPTAPSVIPPAVERVQPVMAPDVPATPVAPTESQTVLDALQQRLNKYREAGIQARSGGDERKARMHERIAKQYQDAIRAHRAGRKVNFAELPVPPGFPPIPGLESTMGVEEDAVAATLAAAEKLASAEDSAPADKDEDEPPGHLQGEPPAQAPVAKKPARPTVPSSQRLPEPRASSSKESPSPSVREQLALLEARKLQYQRAALQAKRSQDLEQAKAYLRVAKWLEAQIIQARSGRPVDLSKVPSP
